# From PMC4336329 (PLoS ONE, 2015)
# Screen size: about 310,000 compounds; about 14,000 (4.5%) showed an effect of 50% or more. The effect is printed as a negative number. This is one part of the list.
# Target: human ether-à-go-go-related gene (hERG) potassium channel (human, UniProt Q12809)
# Test: primary screen, population patch clamp on CHO cells stably expressing hERG
# 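Note: peak tail current of the secondary pulse compared with the same well before compound.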
# Sequence of human ether-à-go-go-related gene (hERG) potassium channel (Q12809 whole entry, looked up): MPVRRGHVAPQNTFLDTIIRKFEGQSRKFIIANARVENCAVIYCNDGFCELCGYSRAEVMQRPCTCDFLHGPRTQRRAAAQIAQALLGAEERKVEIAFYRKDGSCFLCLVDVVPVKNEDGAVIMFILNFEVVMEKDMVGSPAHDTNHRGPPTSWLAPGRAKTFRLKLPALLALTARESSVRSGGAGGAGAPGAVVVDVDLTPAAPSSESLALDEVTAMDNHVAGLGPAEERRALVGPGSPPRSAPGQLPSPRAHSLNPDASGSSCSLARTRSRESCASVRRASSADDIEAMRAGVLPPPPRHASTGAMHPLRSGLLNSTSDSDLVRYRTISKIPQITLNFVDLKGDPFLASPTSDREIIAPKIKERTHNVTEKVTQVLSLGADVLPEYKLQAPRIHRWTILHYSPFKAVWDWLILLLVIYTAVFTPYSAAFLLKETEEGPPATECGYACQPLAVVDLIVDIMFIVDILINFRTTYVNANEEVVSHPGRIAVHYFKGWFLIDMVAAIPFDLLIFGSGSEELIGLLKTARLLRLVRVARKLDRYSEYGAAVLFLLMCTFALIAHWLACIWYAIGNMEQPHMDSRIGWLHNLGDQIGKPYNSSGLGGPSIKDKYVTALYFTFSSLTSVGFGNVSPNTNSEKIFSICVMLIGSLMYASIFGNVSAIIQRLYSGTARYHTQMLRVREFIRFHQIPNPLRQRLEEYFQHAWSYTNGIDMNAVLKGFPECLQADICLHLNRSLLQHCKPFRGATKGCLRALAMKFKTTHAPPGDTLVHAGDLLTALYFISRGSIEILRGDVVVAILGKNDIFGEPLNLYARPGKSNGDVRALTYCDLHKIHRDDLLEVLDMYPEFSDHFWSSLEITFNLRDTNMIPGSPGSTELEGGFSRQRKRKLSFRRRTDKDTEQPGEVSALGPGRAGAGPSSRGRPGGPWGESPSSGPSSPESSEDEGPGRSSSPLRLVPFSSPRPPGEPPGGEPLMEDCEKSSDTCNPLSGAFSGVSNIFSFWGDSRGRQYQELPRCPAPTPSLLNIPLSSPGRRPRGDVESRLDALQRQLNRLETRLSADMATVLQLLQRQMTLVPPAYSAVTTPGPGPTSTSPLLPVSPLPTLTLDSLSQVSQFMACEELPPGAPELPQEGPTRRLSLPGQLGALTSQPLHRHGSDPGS
row,Compound,"hERG current change (%, negative = inhibition) at 10uM [%]"
1,Cc1ccccc1OCCN1C(=O)c2ccccc2C1=O,0.172
2,CCOC(=O)N1CCC(NC(=O)C2CCN(S(=O)(=O)c3cnc[nH]3)CC2)CC1,13.6
3,COC(=O)C(NC(=O)c1ccco1)(Nc1nc(C2CC2)cs1)C(F)(F)F (stereo not shown),11.7
4,CC1(C)Cc2cccc(OCC(=O)N3CCN(c4cccc(Cl)c4)CC3)c2O1,-4.1
5,Cc1nc(NC(=O)CN2CCCCC2)sc1C(=O)N(C)C,1.37
6,O=C(NN1c2ccccc2CCc2ccccc21)c1ccccc1Br,12.9
7,Cc1cc(C)c(NC(=O)C2CCCN2CCC(C)C)c(C)c1 (stereo not shown),-11.5
8,Fc1ccc(/C=N/Nc2nc(-c3cccnc3)nc3ccccc23)cc1,-25.1
9,CCOC(=O)NNC(=O)c1ccc(Cl)cc1,-1.59
10,COC(=O)c1sccc1-n1cccc1C(=O)N1CCOCC1,-44.5
11,COC(=O)c1c(N)c(C#N)c(C)n1-c1ccccc1,7.73
12,Cc1ccc(NC(=O)C2CCN(S(=O)(=O)c3ccc4c(c3)CC(C)N4C(=O)C3CCC3)CC2)nc1 (stereo not shown),-5.5
13,CCOC(=O)c1sc(NC(=O)C2CCC2)cc1C,-8.33
14,Cc1ccc2nc(SCc3ccc([N+](=O)[O-])cc3)[nH]c2c1,-65.1
15,CCCCC(=O)Nc1ccc(NC(=S)NC(=O)CC)cc1OC,-0.84
16,CCOC(=O)CC(=O)CSc1nc(-c2ccccc2)cc(-c2ccccc2)c1C#N,10.1
17,Cc1cccc(N2CN=c3s/c(=C\c4ccccn4)c(=O)n3C2)c1,-1.21
18,Cn1nnc2cc(C(=O)NCCC3=CCCCC3)ccc21,-6.14
19,CCn1c(C)cc(/C=C2\SC(=O)N(CC(=O)Nc3ccc(C)c(C)c3)C2=O)c1C,-2.65
20,CCC(=O)n1nc(-c2ccco2)nc1N,10.8
21,CC(=O)c1ccc2c3c(ccc(O)c13)CC2,5.71
22,Cc1[nH]c2ccccc2c1CCNC(=O)CCC(=O)c1ccccc1,-0.284
23,Cc1cccc(NS(=O)(=O)c2cccc3nonc23)c1,18.2

row,Compound,"hERG current change (%, negative = inhibition) at 10uM [%]"
1,CCCCOC(=O)c1ccc(-c2ccc(/C=N/NC(=S)NCC)o2)cc1,3.27
2,Cc1ccc(NC(=O)C(c2ccccc2)N2CCN(C(=O)c3ccco3)CC2)cc1 (stereo not shown),-72.9
3,CC(=O)Nc1ccccc1C(=O)OCC(=O)c1ccccc1Cl,-12
4,CC12CCC(C(=O)NCc3ccc(F)cc3)(OC1=O)C2(C)C (stereo not shown),22.4
5,COC(=O)c1cc2cc(Cl)ccc2nc1SC,15.2
6,CC(=O)Nc1ccc(NC(=O)CSc2nnc3ccc(-c4cccnc4)nn23)cc1,19.8
7,CCOP(=O)(c1ccc(N(C)C)cc1)C(O)c1cccnc1 (stereo not shown),-3.86
8,CN(c1ccccc1)c1cc(Br)nc(Br)c1,3.76
9,COc1cc(OC)cc(-c2cc3ncccc3cn2)c1,-18.2
10,O=C(Oc1ccccc1)c1cc2ccccc2o1,13.2
11,CS(=O)(=O)N1CCN(c2ccccc2NC(=S)NC(=O)c2cccs2)CC1,9.85
12,Cc1nn(C)c(C(=O)N2CCc3ccccc32)c1Cl,2.37
13,CCOn1c(=O)c(-c2ccc(Br)cc2)[n+]([O-])c2ccccc21,13.6
14,O=C(CN1CCN(C(=O)C2CCCO2)CC1)Nc1ccc(Cl)cc1 (stereo not shown),-40.9
15,O=C(NCCCc1ccccc1)c1ccc(F)cc1,2.13
16,Cc1nc2ccccc2c(=O)n1/N=C/c1ccccn1,-3.77
17,CCOC(=O)C1=C(C)N=C2SC(C(=O)OC)=CC(=O)N2C1c1ccc(OC)cc1 (stereo not shown),-8.56
18,CN(C)C/C=C/C(O)(c1ccccc1)c1ccccc1,-61.5
19,Cn1cc([N+](=O)[O-])c(C(=O)N/N=C/c2ccncc2)n1,3.46
20,CC(=O)Nc1ccc2cc3ccc(NC(C)=O)cc3nc2c1,23.4
21,COc1ccc2c(c1OC)c(=O)n1c3ccc(OC(C)C(=O)NCCN4CCOCC4)cc3c3ccnc2c31 (stereo not shown),-2.67
22,Cc1cccc(CN2C(=O)[C@H]3Cc4c([nH]c5ccccc45)C(C)(C)N3C2=O)c1,-1.56
23,CCOc1cc(C(=S)N2CCOCC2)ccc1OC,11.2

row,Compound,"hERG current change (%, negative = inhibition) at 10uM [%]"
1,Cc1oc(C(C)(C)C)cc1C(=O)Nc1ccc(C(=O)O)cc1,-13.7
2,O=C(Cc1ccc([N+](=O)[O-])cc1)NCc1ccncc1,-20.6
3,Cc1ccc(N2CC(C(=O)Nc3cc(C)ccc3F)CC2=O)cc1 (stereo not shown),-0.716
4,CCN(CC)S(=O)(=O)c1ccc(C)c(NC(=O)CNCCN(C(C)C)C(C)C)c1.O=C(O)C(=O)O,-75.5
5,COc1ccc2oc(C(=O)Nc3nccs3)c(C)c2c1,16.7
6,Cc1nc2ccccc2n1CC(=O)NCCN1CCOCC1,-1.03
7,O=C(Cn1nnc(-c2cccs2)n1)Nc1ccccc1C(F)(F)F,5.76
8,C=CCn1c(SCC(=O)Nc2cc(C)ccc2OC)nnc1-c1ccco1,-44.2
9,C/C(=N\Nc1cccc([N+](=O)[O-])c1)c1cc2ccccc2o1,5.37
10,C=CCn1c(SCC(=O)NCc2ccc3c(c2)OCO3)nnc1C1COc2ccccc2O1 (stereo not shown),-29.8
11,CC(C)c1ccc(NC2CCCN(C(=O)c3cnn(C(C)C)c3)C2)cc1 (stereo not shown),-9.22
12,COc1ccc(CCNC(=S)N2CCN(S(=O)(=O)c3ccc(Cl)cc3)CC2)cc1,22
13,COc1ccc(CN2CCn3ncc(C(=O)Nc4cc(C)cc(C)c4)c3C2=O)cc1,9.29
14,CCOC(=O)Cc1csc(NS(=O)(=O)c2ccc(SC)cc2)n1,11.4
15,CC1(C)Cc2c(C#N)c(OCC(=O)c3ccc(Cl)cc3)nc(-c3ccoc3)c2CO1,15.3
16,Nc1nn(-c2ccccc2Cl)cc1-c1nn[nH]n1,23.2
17,Cc1ccc(Cn2cc(C=O)c3ccccc32)cc1,1.48
18,Cc1nc2c(s1)sc1ccccc12,-0.859
19,CC(C)CCN1C(=O)c2ccc(C(=O)OCC(=O)N(C)C3CCS(=O)(=O)C3)cc2C1=O (stereo not shown),-8.41
20,COc1ccc(CC(=O)Nc2ccc(-c3nnc(-c4ccccc4)o3)cc2)cc1,-13.1
21,C#CCOc1ccc(Br)cc1C(c1c(C)[nH][nH]c1=O)c1c(C)[nH][nH]c1=O,17.6
22,Cc1ccc(C)c2[nH]c(=O)c(CCNC(=O)CC(C)(C)C)cc12,7.84
23,Cc1onc(-c2c(F)cccc2Cl)c1C(=O)NC1CC1,14.6

row,Compound,"hERG current change (%, negative = inhibition) at 10uM [%]"
1,C/C(=N\NC(=O)c1cc(C(C)C)[nH]n1)c1ccncc1,23.6
2,O=S(=O)(NCc1cccs1)c1cccc2cccnc12,-32.8
3,Clc1ncccc1OCc1ccccc1,-11
4,Cc1ccc(-c2csc(NC(=O)c3ccno3)n2)cc1,2.72
5,O=C(NCc1n[nH]c(=S)n1-c1ccc(Br)cc1)c1ccc(S(=O)(=O)N2CCCCC2)cc1,0.455
6,O=C(N/N=C/c1cnc2ccccc2n1)c1cccc(F)c1,-13.8
7,Cc1nnc2sc(SCc3ccccc3)nn2c1=O,1.96
8,CC(C)COC(=O)N1CCN(S(=O)(=O)c2ccc3c(c2)CCC3)CC1,5.93
9,O=C(O)CN1C(=O)/C(=C\c2cc(Br)ccc2OCc2ccc([N+](=O)[O-])cc2)SC1=S,-19
10,CCc1ccc(S(=O)(=O)c2cn(C)c3cc(OC)c(OC)cc3c2=O)cc1,8.93
11,CCn1nc(C(=O)OCC(=O)N(CC(C)C)c2c(N)n(Cc3ccccc3)c(=O)[nH]c2=O)c2ccccc2c1=O,10.3
12,COc1c(N2CCN[C@H](C)C2)c(F)cc2c(=O)c(C(=O)O)cn(C3CC3)c12,10.5
13,c1ccc(CNCc2ccc3c(c2)OCO3)nc1,11.2
14,COc1ccc(CC(=O)Nc2ccc(-c3noc(-c4cccc(OC)c4)n3)cc2)cc1,-6.11
15,O=C(Nc1sc2c(c1C(=O)O)CCCC2)c1ccccc1Cl,11.9
16,N#CNC(=Nc1cccc(F)c1)SCc1ccccc1F,-3.48
17,O=C(O)CSc1nc(-c2cccs2)cc(C(F)(F)F)n1,22.4
18,O=C(NCCC1=CCCCC1)C1CCC(CNc2nc(=S)[nH]c3ccccc23)CC1 (stereo not shown),20.2
19,COn1c(=O)c(-c2ccccc2)[n+]([O-])c2ccccc21,12.4
20,CCc1ccc(-n2cnc3cc(C(=O)NCC(OC)OC)ccc32)cc1,-22.2
21,O=C(NCCOc1ccc(Cl)cc1)c1ccc2ccccc2n1,0.176
22,O=C(c1ccc(Br)cc1)N1CCCC1,4.8
